From patent publication US20230226070A1, “TREATMENT OF THROMBOSIS AND ASSOCIATED DISORDERS WITH AN ANTI-PLATELET AGENT” (THE HEART RESEARCH INSTITUTE LTD, priority 2020, published 2023)

Test system: occlusive thrombus in the mouse carotid artery
Assay: carotid artery thrombosis model: occlusive thrombus formation induced by electrolytic injury, recanalisation classified from carotid blood flow
Type: in vivo, C57BL/6 male mice
Conditions: dual therapy: anticoagulant (hirudin 0.3 mg/kg bolus or argatroban 80 ug/kg bolus + 40 ug/kg/min) together with rt-PA 10 mg/kg

Molecule | thrombolysis and vessel reocclusion (in words)
CC1CNc2c(cccc2S(=O)(=O)N[C@@H](CCCNC(=N)N)C(=O)N2CC[C@@H](C)C[C@@H]2C(=O)O)C1 (some centres unmarked) [argatroban, reference compound] | improves thrombolysis and reduces vessel reocclusion
hirudin [reference compound] | improves thrombolysis and reduces vessel reocclusion
